This is one part of the list.

In this assay the test system is PfSIP2 AP2 domain 1 (GST-tagged). The assay is described as follows: gcPBM binding intensity (ln(normalized median fluorescence intensity)); higher = stronger DNA binding. Summed up: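 Binding intensity is defined as the maximum Masliner-normalised natural-log median intensity across replicate spots for either probe orientation. It was measured on an Agilent 4 × 180k array of primer-extended double-stranded 36-bp intergenic genomic probes and negative controls, to which GST-tagged P. falciparum DNA-binding domains made in E. coli were applied for 1 h in 1× PBS with 1% milk, 0.2 mg/ml BSA, 0.5% salmon testes DNA and 0.03% Triton X-100. Detection was by Alexa488 anti-GST antibody and scanning at 488 nm.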
On to “AAGATTTGAAAAAATACACACAATAAAAAAATAAAA [CACACA_site3281]”, for which the “gcPBM binding intensity (ln)” value turned out to be 7.09. In the case of “TATATATATATGTGTATACACACCTGATAAAGGTAT [CACACA_site2653]”, the “gcPBM binding intensity (ln)” value worked out at 9.06.

Regarding “AATAAATAAAAAACATGTACAAATATAATATAGCAT [XGTACX_site6429]”, the “gcPBM binding intensity (ln)” value came out at 7.46.

As to “TATACATATGAAAATACACACATACATACCTATATA [CACACA_site6888]”, the “gcPBM binding intensity (ln)” value is 6.97. The figure for “TATTTAACACCTTATACACACTTTCTTCCTTTTTTA [CACACA_site4590]” is 6.95. Regarding “TAATTGTACGCCAATACACACAGAATTATAATGTAG [CACACA_site6201]”, the “gcPBM binding intensity (ln)” value is 7.43. In the case of “GATATTGAGAAAGGGTGTACAAGATATTATACTATA [XGTACX_site3598]”, the “gcPBM binding intensity (ln)” value worked out at 6.97. On to “AATAGAAAAAAATAAGTGCATTTTGGTATTCATCAT [GTGCAC_site9614]”, for which the “gcPBM binding intensity (ln)” value was 8.14. Consider “AAATTTATATTCATTTGTACGTAATTTAAATTATAC [XGTACX_site5870]”, for which the “gcPBM binding intensity (ln)” value came to 7.05.

On to “TTTTATGTAATTATTTGTACATATGCCTCTTAAACT [XGTACX_site748]”, for which the “gcPBM binding intensity (ln)” value was determined as 6.83.

Consider “ACATAAATAATAAAAACACACATATGTACATATATA [CACACA_site1913]”, for which the “gcPBM binding intensity (ln)” value was found to be 7.15. The result for “AAAAAAAAAAAGCACACACACATATGTGTATTTATA [CACACA_site6578]” reads 6.93; that for “ACAAAATATACAAAATGTACAAAATTTACAAAATGT [XGTACX_site3544]”, 6.92. The result for “TACTAGCAAATACATACACACACACCCATATACATA [CACACA_site9163]” reads 7.02; that for “GTAATATATACAAAATGTACAAAACAATAACATGAT [XGTACX_site8575]”, 7.17. The figure for “ATCCAAACAAATAAAACATGCATAATATATATATAT [TGCATGCA_site766]” is 8.84. Consider “ATGCTTTTATAAATAATTAAAAAAAAAAAAAAAAAA [TGCATGCA_negctrl_site533]”, for which the “gcPBM binding intensity (ln)” value came out at 6.82. The figure for “CTCAAATAATTTTTTACACACATTATTTGAAATAAG [CACACA_site1290]” is 7. The figure for “TTTTTTTTTAATATTTGTACACAACATGAAACATTT [XGTACX_site473]” is 6.99; for “TAAAATATTACGTGTACACATAAATAAAAATAAAAA [CACACA_site5066]” it is 8.34.

In the case of “TTTTATATTCCACAAAAAATTATATAATAATAGAAC [CACACA_negctrl_site1741]”, the “gcPBM binding intensity (ln)” value turned out to be 7.26. Turning to “AACACAGATAAATTAACACACACACCCATATATATA [CACACA_site9310]”, the “gcPBM binding intensity (ln)” value was 7.69.

Consider “CACATATAGTTATATGCACACATCTTACACATCTAT [CACACA_site5937]”, for which the “gcPBM binding intensity (ln)” value was 7.14. In the case of “ATGAAATATCGGAACGCACACATAAATATATTTATA [CACACA_site2670]”, the “gcPBM binding intensity (ln)” value was 7.21.

As to “TAGCTTATTAATATCATACACACATAGATATATTTA [CACACA_site3105]”, the “gcPBM binding intensity (ln)” value is 6.92. Take “TTGAACTCTCTTACGCGTACGTGTTATTATGAAAAT [XGTACX_site6265]”: the “gcPBM binding intensity (ln)” value came to 6.88. Consider “CAATTTGGGGTGTACACACACCTTATTTAAATTAAA [CACACA_site6663]”, for which the “gcPBM binding intensity (ln)” value was 7.19. The result for “TATATATATATATGTGCATGTAATGATTCAGCATCT [TGCATGCA_site803]” reads 9.04; that for “TTACATAATTTCTGCTGTACCAATTTTGAGAAGTTG [XGTACX_site4023]”, 6.99; that for “AAAAGGAATATAATCATTCAAAAATATAATATATAT [GTGCAC_negctrl_site551]”, 7.1. Turning to “ATGTAAATATATATATGTACTAATTAGTAGTTTACG [XGTACX_site6271]”, the “gcPBM binding intensity (ln)” value worked out at 7.25.

With “TTTTATAAATTATAATTCTATTATCTGTTCTTTTTA [TGCATGCA_negctrl_site487]”, the “gcPBM binding intensity (ln)” value came to 6.7. The result for “CATACATACATACATACACACATACAGATATATATA [CACACA_site4890]” reads 7.92; that for “TCCTTATTACTTTTTTAAGTCGTAATGAAAGAAAAA [CACACA_negctrl_site1497]”, 7.06.

With “ATCTTAACTCTATGCACACATAAAAGTATATAAATA [CACACA_site2256]”, the “gcPBM binding intensity (ln)” value was determined as 7.7. As for “ATCATGTTATATACATGTACATATATATATATATAA [XGTACX_site609]”, the “gcPBM binding intensity (ln)” value was determined as 7.55. The result for “ATCATCCAAGATCTTACACACATATTAAATAAATAA [CACACA_site1473]” reads 7.23; that for “TTTTATTTTTTTAAATGTACACATATTAATGTAAGG [XGTACX_site319]”, 7.19; that for “TAAAACATAAGAGACACACACACATATATATATATA [CACACA_site3643]”, 9.69. The result for “ATATTCTTTTTATGTGGTACTAATTTTTTTTTTTTA [XGTACX_site3791]” reads 6.96; that for “TTTTTAAAACATCACTGTACCCGTTATGGTGAACAT [XGTACX_site3483]”, 7.71; that for “TTTTTAAATAATTGAAGTACACATTTCTCTAAGTTG [XGTACX_site2846]”, 6.78. Regarding “AGTAAAAGAAAGCACACACACATGTATATAGGTATG [CACACA_site7759]”, the “gcPBM binding intensity (ln)” value came out at 6.9.

On to “CATGTATTTTATATTACACACTAATATTATAGATAT [CACACA_site6819]”, for which the “gcPBM binding intensity (ln)” value is 7.
